# Over roughly 33,000 sequences, “E-score (-0.5 to 0.5)” has its median near -0.012; the highest 2% begin near 0.27. The list shows a part of the results.
# Molecular target: T1, Vhr1 (UniProt P40522)
# T1 sequence: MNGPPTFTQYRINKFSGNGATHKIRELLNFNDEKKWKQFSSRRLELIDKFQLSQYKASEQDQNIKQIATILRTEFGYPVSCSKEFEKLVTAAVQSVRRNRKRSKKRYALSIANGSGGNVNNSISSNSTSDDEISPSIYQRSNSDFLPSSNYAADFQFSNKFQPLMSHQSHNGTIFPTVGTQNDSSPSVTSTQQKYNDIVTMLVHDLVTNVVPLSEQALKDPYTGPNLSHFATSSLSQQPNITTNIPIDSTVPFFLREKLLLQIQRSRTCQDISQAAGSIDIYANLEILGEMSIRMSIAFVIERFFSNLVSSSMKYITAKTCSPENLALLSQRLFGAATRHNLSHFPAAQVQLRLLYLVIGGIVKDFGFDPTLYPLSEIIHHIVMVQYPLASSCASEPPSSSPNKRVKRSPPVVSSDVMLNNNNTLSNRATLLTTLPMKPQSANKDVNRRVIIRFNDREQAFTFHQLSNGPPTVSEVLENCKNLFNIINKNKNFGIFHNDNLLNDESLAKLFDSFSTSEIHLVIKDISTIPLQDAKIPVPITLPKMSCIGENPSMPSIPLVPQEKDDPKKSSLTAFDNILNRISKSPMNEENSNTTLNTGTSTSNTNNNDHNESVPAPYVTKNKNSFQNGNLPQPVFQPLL
# Assay: PBM E-score (8-mer binding enrichment) (E-score (-0.5 to 0.5)); higher = stronger / more preferred TF binding; most listed sequences are background and not binding sites
# Conditions: protein concentration: 200 nM; construct: GST-full length
# In short: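 E-scores (a modified Wilcoxon-Mann-Whitney statistic) were assigned by the Universal PBM Analysis Suite to every ungapped eight-base word pooled with its reverse complement. The input came from universal all-10-mer Agilent arrays made double-stranded by primer extension and probed with GST-tagged yeast transcription factors at about 100-200 nM. Fluorescent anti-GST detected bound protein, and masliner normalised the scans.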
row,Sequence,PBM E-score
1,AGCGGGTC,-0.141
2,TAGAGATA,-0.0927
3,CCGACGTC,0.0678
4,ACTCCTCT,0.0797
5,CTATTCTC,-0.0617
6,CTGGGCAC,-0.152
7,CATACTAA,0.135
8,ACTGATAA,0.134
9,CATGTTAG,-0.174
10,ATGATTTG,0.172
11,AGCCGGCA,-0.12
12,AGAGCGAT,-0.0801
13,ATCTCAGG,-0.0729
14,AGCCAACA,-0.166
15,ACCAAAGC,-0.0295
16,AGGGTGGG,0.282
17,ACGCGTGC,-0.136
18,ATCACGTA,-0.0139
19,GCCACACC,0.134
20,ATTTGTAG,-0.154
21,GCACGTCA,-0.153
22,CCTACAAC,-0.0753
23,TATTATGA,0.171
24,GCCTGCCC,-0.118
25,AACCGCGG,0.225

row,Sequence,PBM E-score
1,CTGAGTTA,-0.0121
2,CGGGAGGC,-0.129
3,ATTGGATC,0.112
4,TGGTACAA,0.0595
5,ACTAATCC,0.141
6,CACTTTGA,-0.195
7,CGAATTTA,-0.067
8,GCAATGTA,-0.054
9,ACCCCTGC,-0.143
10,TAGGCATA,-0.0636
11,GCATTGGC,-0.171
12,AAGCGCCT,-0.204
13,GAGGGCCC,-0.0931
14,AGGCTCAT,0.109
15,ACCAGAAA,-0.233
16,CCCTCCAA,-0.0124
17,ACTATCTG,0.00954
18,AAGTGCAT,-0.123
19,GCGTTAAC,-0.128
20,CTTTATGC,-0.193
21,ACATCGAG,-0.0529
22,TTGTAAAA,-0.0435
23,ACAGAAAT,-0.136
24,TCGAAGAA,-0.0628
25,ACCTGTAA,-0.15

row,Sequence,PBM E-score
1,CCCAGTAA,-0.0498
2,CCATACAC,0.163
3,AGCGCGAG,0.00147
4,AAGCCACG,-0.0768
5,AAATTGGC,-0.168
6,AACGGCTG,-0.144
7,ATTCGCAG,0.0181
8,ACAAGGAG,0.0796
9,AAGTTAGA,-0.0297
10,ACAAGATG,0.103
11,CGAGATAG,-0.197
12,TAATCCGA,0.0399
13,CTTAAAAG,-0.239
14,CTAATGAG,0.0521
15,ATGTTACC,0.0597
16,CCGCACGA,-0.036
17,ATAGCACG,-0.145
18,AGTGCGCG,0.0395
19,GTGATCAA,-0.0402
20,GTGGACTA,0.147
21,GGCAGGCA,-0.175
22,CCTCAAGC,-0.156
23,AAGCGGTG,-0.183
24,CAAATAAA,-0.117
25,ACGCGCCT,0.0318

row,Sequence,PBM E-score
1,GTGCGGGA,-0.112
2,CCCATGAC,0.332
3,AAGGTATT,-0.193
4,AAAACGTT,-0.0927
5,ACCGGATA,0.0413
6,CAATAGTC,0.183
7,GCCCGTGA,0.0738
8,GCGAGCCC,0.182
9,AATAGTCG,0.148
10,CGGTAACA,-0.0396
11,CCTAGATA,-0.141
12,AGCTCATA,0.112
13,ACACAACT,0.0908
14,AGCATTGA,-0.0743
15,AGGGAGCA,-0.149
16,TTCGTAAA,-0.253
17,CTGTAGGA,-0.0533
18,AAGAGGCG,-0.179
19,AGAGCCAC,0.0667
20,AAGCACTT,-0.136
21,GCCTAGCC,-0.247
22,CGTGACCA,0.0998
23,CGGCTAGC,-0.0236
24,TCCCCGCA,0.0911
25,GGCCAAAC,-0.155

row,Sequence,PBM E-score
1,CATTGGCA,0.16
2,AGTCTTGG,0.099
3,AACTCACT,0.0454
4,CACATCGA,0.0352
5,CAAAGTTG,-0.0567
6,AAGAACAT,0.0425
7,AAGGGGAT,-0.0141
8,ATATTCGC,-0.0174
9,GTCCGAGA,-0.00966
10,AATCCAGC,-0.025
11,GATACCCC,-0.0429
12,ACTCATCT,0.199
13,CTGGAGAA,-0.236
14,CAATTCGG,-0.118
15,AGCCCCAA,-0.0947
16,CCACACTA,0.17
17,CCTATGTC,0.0253
18,ACGCGCAG,-0.0946
19,GAAATCGC,-0.0428
20,AACTGTTC,0.022
21,CCCCCTAG,-0.316
22,CAGATAGG,-0.0435
23,AGCGATAC,0.0878
24,CTGAATAC,0.145
25,TCATGCAA,0.154

row,Sequence,PBM E-score
1,CAGAAAAG,-3e-05
2,AAATCTCC,-0.325
3,AAGTCGAT,-0.0165
4,CTCTTTTC,-0.268
5,CTGAGAAA,-0.269
6,GACGTGTA,-0.0138
7,AACACGAA,0.118
8,CTCCCGGA,0.0804
9,AAGATGCG,0.0144
10,AGAGGACT,-0.191
11,AGGTTTAC,-0.112
12,ATCCGATA,-0.175
13,GGGTATCA,0.0427
14,CACGACAA,0.024
15,CTCCCCTC,0.204
16,AAGTACAA,0.0236
17,GCTGAAAA,-0.161
18,AACACCAC,0.0462
19,AGTAGTCA,0.401
20,CGGATCCA,0.298
21,GAAGGCTA,-0.161
22,CTATGAAC,0.107
23,ATGCTTGA,0.0306
24,ATCAGCAA,0.0473
25,AAAGACCC,-0.0397

row,Sequence,PBM E-score
1,TCGATCCA,-0.0434
2,ATGCGCGA,0.0397
3,ACTGGAGA,-0.131
4,ATCACAAG,0.0788
5,TACTCGCA,0.263
6,AAGCTACC,0.00426
7,ACACTCAA,0.185
8,GTTACGGA,-0.0079
9,GGCCCGAC,0.117
10,AACTCTTA,-0.0247
11,GACATCGA,-0.0724
12,CGCACCGC,0.107
13,ATCGAGGA,0.0625
14,ATGTATTA,0.152
15,GCTATACC,0.018
16,AGCACCTG,-0.171
17,CGCTCACC,0.081
18,ACCTGCCC,0.0405
19,AATGCCAA,0.00241
20,AACGGTCC,-0.263
21,AAACAAGC,-0.0656
22,GAGACAAC,0.125
23,AAAGCAGT,0.135
24,ACTCAGAA,0.0966
25,AGGTTAAT,-0.0678

row,Sequence,PBM E-score
1,AACGAGGG,0.0227
2,CTTATCTC,-0.129
3,CAGACCTG,-0.0881
4,GAGTGTCC,0.0875
5,AATAACCT,-0.11
6,AGGCATAC,0.0467
7,ACATTCAA,-0.0253
8,AGCTTACC,-0.199
9,CCATCATA,0.0955
10,GAGGTGAC,0.242
11,CGGAATGC,-0.0192
12,ACGTCACG,-0.153
13,AATGGCCC,-0.305
14,ACTCTCTG,0.108
15,ATTTGTTC,0.165
16,CGCACGCC,0.167
17,GGTCGTAA,-0.242
18,AAGGTGCG,-0.0754
19,CCGGGACA,-0.0176
20,GCTGTACC,-0.00431
21,AGGATTAG,0.0355
22,AGTATCTC,0.107
23,AAAACATA,-0.118
24,GACGGATC,-0.0953
25,AATACGTG,0.0623

row,Sequence,PBM E-score
1,GACTTTGC,-0.105
2,CCATTCCC,0.0713
3,CGTGAACG,-0.289
4,CTAGGATA,0.0079
5,ACGCTATG,-0.0962
6,AAAACGTA,0.00296
7,CGTTCACC,-0.0315
8,ATTGATTG,0.0691
9,GCTTTAAC,-0.104
10,ATAAATTG,0.256
11,ATCCAGGG,-0.0888
12,AGTCCGGG,0.103
13,CGTCGCCA,-0.168
14,CTGCCTAC,0.117
15,GGACCCAA,-0.0927
16,GCTATTCA,-0.0143
17,TAACCGTA,-0.122
18,CCCGCGCG,0.216
19,GAGAGAAA,-0.304

# From the supplement of paper PMC3334620
